Consider 57 sequences from the supplement of paper PMC11417369.

± gives the standard deviation of the averaged measurements. This is one part of the list.

In the assay the test system is PfAP2-I AP2 domain 3 (GST-tagged). Nature of the assay: gcPBM binding intensity (ln(normalized median fluorescence intensity)); higher = stronger DNA binding. The gist of the method: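 The highest Masliner-normalised natural-log median intensity across replicate spots of either probe orientation is reported as binding intensity. GST-tagged P. falciparum DNA-binding domains expressed in E. coli were applied for 1 h to an Agilent 4 × 180k array of primer-extended double-stranded 36-bp intergenic genomic probes plus negative controls, and bound protein was detected with Alexa488 anti-GST antibody and scanned at 488 nm.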
Regarding “TTTTTTTTTTCTCTCGCACACATTTTTTAAAATGAG [CACACA_site2607]”, the “gcPBM binding intensity (ln)” value amounted to 8.38 ± 0.76.

“AGTAGGCATATTGGTTGTACAAAAAAATTATGCACC [XGTACX_site8925]”: the “gcPBM binding intensity (ln)” value stood at 11.2 ± 0.61.

In the case of “GACTCTTAAAAAATTTGTACCCACATAAATAATATA [XGTACX_site4313]”, the “gcPBM binding intensity (ln)” value was determined as 8.02 ± 0.31.

In the case of “ATATTTATATAGATGTGTACATAAATATAATAACAT [XGTACX_site1681]”, the “gcPBM binding intensity (ln)” value was 8.18 ± 0.42.

As for “ATATATATATATGTTTATTTATTTGAACGATTGTGG [CACACA_negctrl_site828]”, the “gcPBM binding intensity (ln)” value amounted to 9.4 ± 0.56.

Take “ATAATATAATATATATGTACACATCCTTTTTGTGTA [XGTACX_site2879]”: the “gcPBM binding intensity (ln)” value stood at 7.82 ± 0.38.

For the sequence “TAAAAGTAAAAAGGTAGTACCTAAATAATATATATA [XGTACX_site8399]”, the “gcPBM binding intensity (ln)” value was determined as 8.4 ± 0.68.

In the case of “TATATATCCTCTGAATGTACTTGTTTAATAATGTAG [XGTACX_site4332]”, the “gcPBM binding intensity (ln)” value came to 7.63 ± 0.33.

On to “TGTGTAATATTCTGTTGTACATAACTCATAAATAAA [XGTACX_site5308]”, for which the “gcPBM binding intensity (ln)” value was found to be 7.95 ± 0.31.

Take “ATAAGATAGGCATATACACACATTTATTTACAGATA [CACACA_site5754]”: the “gcPBM binding intensity (ln)” value was found to be 7.71 ± 0.67.

For the sequence “GAATAAAAAATTGGCACACATAAATATATGGATATA [CACACA_site3047]”, the “gcPBM binding intensity (ln)” value worked out at 8.01 ± 0.39.

“TTCAACATATTAAAAAGTACAGAATATAACATTATA [XGTACX_site1361]”: the “gcPBM binding intensity (ln)” value was determined as 7.72 ± 0.33.

With “AATAAATTTAGACACACACACACATATAAATAAATA [CACACA_site6531]”, the “gcPBM binding intensity (ln)” value turned out to be 7.96 ± 0.47.

As for “TATACGTGAATGACAGTGCATTTCAAAAGTATAAAA [GTGCAC_site9887]”, the “gcPBM binding intensity (ln)” value was 9.93 ± 0.33.

Take “ATTAGTGACATTATTACACACAAAAGAAAACAGAAA [CACACA_site3984]”: the “gcPBM binding intensity (ln)” value came to 8.11 ± 0.52.

For the sequence TGAATCTATATACAGGTGCGTAAAAAATAACTTATA, the “gcPBM binding intensity (ln)” value turned out to be 10 ± 0.31.

As for “CAAGAATTAAAATAAAGTACAAAAGTAACAACTTTT [XGTACX_site1474]”, the “gcPBM binding intensity (ln)” value stood at 7.54 ± 0.53.

Turning to “AAAAAAAAGGAAAAGGGTACAAAACCATACTTACAT [XGTACX_site4783]”, the “gcPBM binding intensity (ln)” value is 7.74 ± 0.76.

In the case of “TTATCATTACATGAGTGTACATTATTATATTTTTTT [XGTACX_site7845]”, the “gcPBM binding intensity (ln)” value is 7.75 ± 0.5.

Turning to “TAAAGATATAAATGCACACGTATTAAAAAAAAAATA [CACACA_site952]”, the “gcPBM binding intensity (ln)” value is 9.39 ± 0.49.

Consider “ATATATTTTTTTTTTTGTACGTATATTTATATAATT [XGTACX_site8719]”, for which the “gcPBM binding intensity (ln)” value is 7.95 ± 0.81.

With “GAAAGAAAGAAAGAAAGTACATATAAAAATATACAT [XGTACX_site7299]”, the “gcPBM binding intensity (ln)” value worked out at 7.63 ± 0.49.

“ATGATAGTAATTAATAGTACTTTTTTTGATACAAAA [XGTACX_site4288]”: the “gcPBM binding intensity (ln)” value was 7.61 ± 0.4.

Take “TCGTGTTTTAAAAAAATGAAGAAAAGTAAAAAAAAA [XGTACX_negctrl_site23]”: the “gcPBM binding intensity (ln)” value amounted to 8.01 ± 0.74.

As to “ATTAAATGTATGACTTGTACATAAAATAAAAAAAAA [XGTACX_site6555]”, the “gcPBM binding intensity (ln)” value is 7.78 ± 0.55.

Take “TAATATGAATATATATGTACATACAATTTGTTATAT [XGTACX_site5815]”: the “gcPBM binding intensity (ln)” value worked out at 8 ± 0.45.

Regarding “TATCCTAATGCTACCACACACACAAAAACAAATAAT [CACACA_site2609]”, the “gcPBM binding intensity (ln)” value is 8.51 ± 0.16.

As to “ATGTTGAAAGGAAAAAATAATAAAATCGATATATTA [CACACA_negctrl_site549]”, the “gcPBM binding intensity (ln)” value worked out at 7.49 ± 0.71.

With “AAAAAAAAGAATAGAGCATGCAAAATATATGAAATA [TGCATGCA_site933]”, the “gcPBM binding intensity (ln)” value came out at 7.78 ± 1.1.

In the case of “CCTTACTTCTTATAAAGTACCCAATGATATACATTA [XGTACX_site1554]”, the “gcPBM binding intensity (ln)” value came to 7.91 ± 0.5.

For the sequence “AATATTTATGGGTGCACACAAACATACATATATATA [CACACA_site3395]”, the “gcPBM binding intensity (ln)” value was determined as 10.8 ± 0.29.

Consider “TTTTAATGTATATTTTGTACGTATTATTAATATTCG [XGTACX_site8453]”, for which the “gcPBM binding intensity (ln)” value was 7.74 ± 0.4.

In the case of “ATTTTCCTTTAATTATGTACTTATGTAATAATAATG [XGTACX_site2612]”, the “gcPBM binding intensity (ln)” value was 7.83 ± 0.34.

Regarding “ATCTCTACAAAGTGCACACACGTAAAAACATATATA [CACACA_site6046]”, the “gcPBM binding intensity (ln)” value was 10.2 ± 0.38.

Consider “TGTATGATTATGTTGTGTACGTAAAATATGAAAAAT [XGTACX_site1720]”, for which the “gcPBM binding intensity (ln)” value came out at 8.65 ± 0.38.

Regarding “GTATCATAAAAGTATACACACATACATACATATGTA [CACACA_site5456]”, the “gcPBM binding intensity (ln)” value was 7.96 ± 0.42.

As for “AATTTTTTTCTCCAAGTGCATTAGAACATTAACGTA [GTGCAC_site9413]”, the “gcPBM binding intensity (ln)” value was found to be 10.9 ± 0.53.

“ATATATTTATGTATCACACACAAAAAAAAAAAATAA [CACACA_site255]”: the “gcPBM binding intensity (ln)” value turned out to be 7.69 ± 0.47.

Consider “ATTATTATTTATATGATACACACGTACATATACGCA [CACACA_site3823]”, for which the “gcPBM binding intensity (ln)” value is 7.86 ± 0.46.

As to “TATAAAAAATAATTATCATGAAATATATGATCATCA [TGCATGCA_negctrl_site137]”, the “gcPBM binding intensity (ln)” value stood at 7.37 ± 0.64.

In the case of “TCAAAAATGAGTTACACACACACATATATATATATA [CACACA_site2229]”, the “gcPBM binding intensity (ln)” value was determined as 9.46 ± 0.32.

“ATATGAATAAATAAAAGTACATACATAATGTATTAT [XGTACX_site5969]”: the “gcPBM binding intensity (ln)” value was 7.75 ± 0.53.

As for “TTAAAAAAAATATAATGTACTTGTAGAATTATATTT [XGTACX_site6220]”, the “gcPBM binding intensity (ln)” value was 7.54 ± 0.39.

With “TATATTTTTTATAAATGTACATGGATAGGCATAAAC [XGTACX_site8401]”, the “gcPBM binding intensity (ln)” value was found to be 8.48 ± 0.7.

As to “ACAAATAAATAAAAAACACACACAAATAAATAAATA [CACACA_site8708]”, the “gcPBM binding intensity (ln)” value stood at 7.71 ± 0.69.

Turning to “AGTATATAAAATACTGTATCGATGGGGGAGGGCGCA [CACACA_negctrl_site1612]”, the “gcPBM binding intensity (ln)” value stood at 9.6 ± 0.31.

As for “AATATAATGCAATATACACACATATATTTCTCTTTT [CACACA_site7276]”, the “gcPBM binding intensity (ln)” value was 8.59 ± 0.099.

Regarding “TAATAATAAAATATTTGTACATATAAAATATGGCTG [XGTACX_site7904]”, the “gcPBM binding intensity (ln)” value turned out to be 7.5 ± 0.35.

As to “TATATATAATATATATGTACATAATATATTTTATAT [XGTACX_site2909]”, the “gcPBM binding intensity (ln)” value came out at 7.74 ± 0.18.

For “TAAAACACTCATGGCACACATAAAACATTTTTATGA [CACACA_site3574]”, the “gcPBM binding intensity (ln)” value worked out at 8.18 ± 0.24.

As to “AGTTTAAATTAAATTACACACTACGAATAATATATT [CACACA_site7811]”, the “gcPBM binding intensity (ln)” value is 7.86 ± 0.28.

On to AGTATAAGCATTATTGTGCACATAATTATAATTTTT, for which the “gcPBM binding intensity (ln)” value was 10.6 ± 0.53.

Regarding “TATTAATCTTTTTTTAAACAAAAAATTAAGCAAATT [CACACA_negctrl_site884]”, the “gcPBM binding intensity (ln)” value came out at 7.59 ± 0.57.

Take “TATATATTAATAAATAGTACCCGTGGAATTTATATT [XGTACX_site5855]”: the “gcPBM binding intensity (ln)” value was 7.75 ± 0.4.

“GTTGCAATTAACACTAGTACATATAAGTAGTTTATT [XGTACX_site2063]”: the “gcPBM binding intensity (ln)” value stood at 7.72 ± 0.61.

Take “ATTGTTCTCCAAAAGTGTACGTATTATTTTTCTGGA [XGTACX_site1404]”: the “gcPBM binding intensity (ln)” value was 7.92 ± 0.53.

With “AATAATGAAACAGGAAAAAAATATTGTTAAAATGTA [XGTACX_negctrl_site400]”, the “gcPBM binding intensity (ln)” value is 7.95 ± 0.78.
